Results on 1 molecule are retold here after publication doi:10.1101/2024.10.14.618187, “Molecular basis of interchain disulfide-bond formation in BMP-9 and BMP-10” (bioRxiv, 2024).

The experiment concerns the target T1, BMP-9 monomer (cysteinylated BMP-9 growth factor) (human, UniProt Q9UK05 320-429, A321S, Cys-392 cysteinylated (a cysteine attached by a disulfide, +119 Da)).
T1 construct: human BMP-9 growth factor domain released by factor Xa from Pro-(X)-BMP-9 (proBMP9 residues 23-429, A321S, furin site RRKR replaced by IEGR); numbers count on the precursor; The His tag sits on the prodomain and goes with it after the factor Xa digest; One of PDB 9DPM-9DPY holds this molecule; source: expi293 (suspension HEK293), secreted as Pro-(X)-BMP-9; nickel column, factor Xa digest, C18 …
T1 sequence (looked up): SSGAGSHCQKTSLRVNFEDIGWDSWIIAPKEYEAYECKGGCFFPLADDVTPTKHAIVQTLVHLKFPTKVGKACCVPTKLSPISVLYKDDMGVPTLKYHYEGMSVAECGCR
Put plainly: SEC-MALS; BMP-9 monomer at 6.58 μM injected with excess ActRIIa (1:1.6); Superdex 75 Increase 10/300 GL; 150 mM NaCl, 100 mM tris pH 7.5. As to conditions: both partners purified. On the technique in general: SEC sorts molecules by how far they enter the pores of the column.

B1: ActRIIa extracellular domain (human activin receptor type-2A […]) (receptor)
chain: not shown
modifications: deglycosylated with PNGAseF
notes: human activin receptor type-2A, […]; The purification as told names no thrombin step; the expected mass of the complex (24.4 kDa) hints that the tag was off, but this is a surmise; source: expi293 (suspension HEK293), secreted; nickel column, PNGase F, size exclusion chromatography
B1: the binding result was “binds”.
